The record followed here is the antibiotic and cytotoxicity screens of Wong et al. (2023).

In one test the test system is HSkMC. As to the kind of experiment: cytotoxicity call (relative viability < 0.9). The following applies: 10 µM.
The test system of another test is HepG2. The test can be described thus: cytotoxicity call (relative viability < 0.9). The settings on record: 10 µM.
The subject of the next test is S. aureus RN4220. As to the kind of experiment: growth inhibition call (relative growth <= 0.2). The following applies: 50 µM.

This is one part of the list.

For the compound `C[C@@H]1CN([C@@H](C)CO)C(=O)c2cc(NC(=O)CCN3CCOCC3)ccc2O[C@@H]1CN(C)S(=O)(=O)c1ccc(F)cc1`, the cytotoxicity call in the test on HSkMC and in the test with HepG2 was “inactive” throughout. In addition, the growth inhibition call in the test on S. aureus RN4220 is “inactive”.
Turning to `C[C@@H]1CN([C@H](C)CO)C(=O)c2cc(NC(=O)Cn3cnnn3)ccc2O[C@H]1CN(C)Cc1ccc(-c2ccccc2)cc1`, the cytotoxicity call in the test on HSkMC and in the test on HepG2 was “inactive” throughout. The growth inhibition call in the test with S. aureus RN4220 is “inactive”.
For `CCOC(=O)Cc1csc(/C(=N/O)C(N)=O)n1`, the cytotoxicity call in the test on HSkMC and with HepG2 was “inactive” in each case. In addition, the growth inhibition call in the test on S. aureus RN4220 is “inactive”.
As to `C[C@@H]1CN([C@H](C)CO)C(=O)c2cc(NC(=O)Nc3ccc(C(F)(F)F)cc3)ccc2O[C@@H](C)CCCCO[C@@H]1CN(C)C(=O)c1ccccc1`, the cytotoxicity call with HSkMC was “active”. The cytotoxicity call in the test on HepG2 was “inactive”. In addition, in the test with S. aureus RN4220, the growth inhibition call was “inactive”.
Take `N#CCN1CCSCC1`: the cytotoxicity call in the test with HSkMC and in the test with HepG2 was “inactive” throughout. Further, in the test on S. aureus RN4220, the growth inhibition call is “inactive”.
As to `C[C@@H]1CN([C@@H](C)CO)C(=O)c2cc(NS(=O)(=O)c3ccc(F)cc3)ccc2O[C@H]1CN(C)C(=O)Nc1cccc2ccccc12`, the cytotoxicity call with HSkMC and in the test on HepG2 was “inactive” in each case. The growth inhibition call with S. aureus RN4220 was “inactive”.
Turning to `C[C@@H](O)C#Cc1ccc2c(c1)O[C@H](CN(C)C(=O)c1ccncc1)[C@@H](C)CN([C@@H](C)CO)S2(=O)=O`, the cytotoxicity call in the test with HSkMC and in the test with HepG2 was “inactive” each time. Besides, the growth inhibition call with S. aureus RN4220 was “inactive”.
Consider `C[C@@H]1CN([C@H](C)CO)C(=O)c2cc(NC(=O)Nc3ccc(F)cc3)ccc2O[C@@H]1CN(C)S(=O)(=O)c1cn(C)cn1`, for which the cytotoxicity call with HSkMC and with HepG2 was “inactive” throughout. In addition, the growth inhibition call in the test on S. aureus RN4220 was “inactive”.
Consider `C[C@@H]1CN([C@@H](C)CO)C(=O)Cc2cc(NC(=O)Cn3cnnn3)ccc2O[C@H]1CN(C)C(=O)NC1CCCCC1`, for which the cytotoxicity call in the test on HSkMC and in the test with HepG2 was “inactive” throughout. Moreover, the growth inhibition call in the test with S. aureus RN4220 was “inactive”.
`CC(C)N1CC[C@H](CNCc2ccc(Oc3ccccc3)cc2)Oc2c(NC(=O)c3ccncc3)cccc2C1=O`: the cytotoxicity call in the test on HSkMC and with HepG2 was “inactive” each time. In addition, in the test with S. aureus RN4220, the growth inhibition call was “inactive”.
Turning to `C[C@@H]1CCCCO[C@H](CN(C)Cc2ccc(C(F)(F)F)cc2)[C@H](C)CN([C@@H](C)CO)C(=O)c2cc(NS(=O)(=O)c3ccc(F)cc3)ccc2O1`, the cytotoxicity call in the test on HSkMC is “active”. The cytotoxicity call in the test with HepG2 is “inactive”. For the same compound, the growth inhibition call with S. aureus RN4220 is “inactive”.
In the case of `C[C@@H]1CN([C@H](C)CO)C(=O)c2cccc(NS(=O)(=O)c3cn(C)cn3)c2O[C@H]1CN(C)Cc1ccccc1`, the cytotoxicity call in the test with HSkMC and with HepG2 was “inactive” each time. Besides, the growth inhibition call in the test on S. aureus RN4220 was “inactive”.
Regarding `C[C@@H](O)C#Cc1ccc2c(c1)O[C@@H](CN(C)C(=O)c1ccncc1)[C@@H](C)CN([C@@H](C)CO)S2(=O)=O`, the cytotoxicity call in the test on HSkMC and in the test with HepG2 was “inactive” each time. Further, in the test with S. aureus RN4220, the growth inhibition call was “inactive”.
For the compound `Cc1ccc(/C=C(\CCC(=O)O)c2nc3ccccc3s2)cc1`, the cytotoxicity call in the test with HSkMC and with HepG2 was “inactive” throughout. In the test with S. aureus RN4220, the growth inhibition call was “inactive”.
As to `C[C@@H]1CN([C@H](C)CO)C(=O)c2cc(NC(=O)C3CCCCC3)ccc2O[C@H]1CN(C)S(=O)(=O)c1cn(C)cn1`, the cytotoxicity call in the test with HSkMC and in the test on HepG2 was “inactive” throughout. Also, the growth inhibition call with S. aureus RN4220 is “inactive”.
For the compound `C[C@@H]1CN([C@H](C)CO)S(=O)(=O)c2ccc(/C=C/c3ccccc3)cc2O[C@@H]1CN(C)C(=O)CN1CCOCC1`, the cytotoxicity call in the test with HSkMC and with HepG2 was “inactive” in each case. Also, the growth inhibition call with S. aureus RN4220 is “inactive”.
As for `C[C@H]1CN([C@@H](C)CO)C(=O)c2cc(NS(=O)(=O)c3ccccc3)ccc2O[C@@H]1CN(C)S(=O)(=O)c1cccs1`, the cytotoxicity call in the test on HSkMC and in the test with HepG2 was “inactive” throughout. In addition, the growth inhibition call with S. aureus RN4220 is “inactive”.
In the case of `C[C@H](CO)N1C[C@H](C)[C@@H](CN(C)Cc2ccc(-c3ccccc3)cc2)Oc2ccc(NC(=O)Cc3ccccc3)cc2CC1=O`, the cytotoxicity call with HSkMC and with HepG2 was “inactive” each time. Moreover, in the test with S. aureus RN4220, the growth inhibition call was “inactive”.
Take `C[C@@H]1CN([C@H](C)CO)C(=O)CCCn2cc(nn2)CO[C@H]1CN(C)C(=O)C1CC1`: the cytotoxicity call in the test with HSkMC and with HepG2 was “inactive” each time. Further, the growth inhibition call in the test on S. aureus RN4220 is “inactive”.
For `C[C@H]1CN([C@@H](C)CO)C(=O)Cc2cc(NC(=O)Nc3cccc4ccccc34)ccc2O[C@@H]1CN(C)S(=O)(=O)c1ccc(F)cc1`, the cytotoxicity call with HSkMC and in the test with HepG2 was “inactive” in each case. Moreover, the growth inhibition call in the test with S. aureus RN4220 is “inactive”.
As for `COc1ccc2c3c([nH]c2c1)[C@@H](CO)N(Cc1ccc(cc1)Cl)C[C@]13CCN(CC1)Cc1ccccc1`, the cytotoxicity call with HSkMC and in the test on HepG2 was “active” in each case. Further, in the test on S. aureus RN4220, the growth inhibition call is “inactive”.
Consider `C[C@H]1CN([C@@H](C)CO)C(=O)c2cccc(NS(=O)(=O)c3ccccc3)c2O[C@H]1CN(C)S(C)(=O)=O`, for which the cytotoxicity call in the test with HSkMC and in the test with HepG2 was “inactive” throughout. The growth inhibition call with S. aureus RN4220 was “inactive”.
For `Cc1c(Cl)cccc1Nc1ncccc1C(=O)O`, the cytotoxicity call in the test with HSkMC and in the test on HepG2 was “inactive” throughout. In addition, the growth inhibition call in the test with S. aureus RN4220 is “inactive”.
`Cc1noc(C)c1NC(=O)Nc1ccc2c(c1)C(=O)N([C@@H](C)CO)C[C@@H](C)[C@@H](CN(C)Cc1ccc(C(F)(F)F)cc1)OCCCC[C@@H](C)O2`: the cytotoxicity call in the test with HSkMC and with HepG2 was “inactive” each time. The growth inhibition call in the test with S. aureus RN4220 is “inactive”.
As to `C[C@@H]1CCCCO[C@H](CN(C)C(=O)Nc2cccc3ccccc23)[C@H](C)CN([C@H](C)CO)C(=O)c2cc(NS(C)(=O)=O)ccc2O1`, the cytotoxicity call with HSkMC was “inactive”. Besides, the cytotoxicity call in the test with HepG2 was “active”. Besides, the growth inhibition call with S. aureus RN4220 was “inactive”.
Turning to `C[C@@H]1CCCCO[C@H](CN(C)C(=O)c2ccccc2)[C@@H](C)CN([C@H](C)CO)C(=O)c2cc(NC(=O)Nc3ccc(F)cc3)ccc2O1`, the cytotoxicity call in the test on HSkMC (human skeletal muscle cells) and in the test with HepG2 was “inactive” in each case. For the same compound, the growth inhibition call with S. aureus RN4220 is “inactive”.
